# Results from the supplement of paper PMC11417369.
# This is one part of the list.
# System: PfAP2-HC AP2 domain (GST-tagged)
# Assay: gcPBM binding intensity (ln(normalized median fluorescence intensity)); higher = stronger DNA binding
# Method in brief: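 Probes on an Agilent 4 × 180k array were primer-extended, double-stranded and 36 bp long, taken from intergenic genomic regions, with negative controls added. GST-tagged P. falciparum DNA-binding domains from E. coli, about 25 μg on average, were applied to the array for 1 h in 1× PBS containing 1% milk, 0.2 mg/ml BSA, 0.5% salmon testes DNA and 0.03% Triton X-100. Binding intensity, obtained after Alexa488 anti-GST antibody detection and a 488 nm scan, is the highest Masliner-normalised natural-log median intensity across replicate spots of either probe orientation.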
row,Sequence,gcPBM binding intensity (ln)
1,ATATATATATATTGCACACACAATTATTATTATTAT [CACACA_site2299],10.1
2,TTTATTTATGTTGAAACATGCAAAAAGTTATTTATA [TGCATGCA_site716],9.3
3,TTCAAAAGCCGGATAACATGCAGTAGTAGAACAAAC [TGCATGCA_site413],9.94
4,ACTCCATAATATTGATGTACTATAATGCATTTATTT [XGTACX_site5562],9.9
5,TATTTATTTTCATATAGTACTTTTTTCAGGCATATA [XGTACX_site6691],9.55
6,TTATAGAATTTATTTACACACAAACATTTATACTTT [CACACA_site7592],9.78
7,TGGTATATAAAACACACACACATATGTATTTATATA [CACACA_site4665],10.2
8,TTTTGCCTTTCTACTTGTACTTAAAATATTATAATT [XGTACX_site5483],9.82
9,TTTCTGTGTTTTGGTTGTACACACGCTACATTATAT [XGTACX_site5669],10.3
10,TTGTTTTTTTTTTCTATAAGCATAAAAATGATATAA [XGTACX_negctrl_site356],9.27
11,AAATTAAAAAAATAATGTACATGTATTTATTATGTA [XGTACX_site2419],9.71
12,TTTATTTATTATTAAAGTACTAAATCATATAATTAT [XGTACX_site5727],9.48
13,TTTTATTTCTTTGCACCATTTTAAATACAAACAAAT [CACACA_negctrl_site1553],9.6
14,TAAAACAATACTTTGTGCTTCTCTGGTTTTTTTTTT [GTGCAC_negctrl_site284],9.58
15,GCTTTTAAAATAATTGGTACACATGTATAAATTCAA [XGTACX_site2327],9.61
16,AGTATTCACTTAATATGTACATATTTATTATAAGAG [XGTACX_site3434],9.56
17,CACAAAAAGAAACACACACACATATATATATATATA [CACACA_site999],10.2
18,ATTCTAAATAATAAGAGTACAAATAATATGGAGAAG [XGTACX_site5209],9.75
19,GAAAATATGTAATAGTGTACACATATATATGTATAT [XGTACX_site306],9.87
20,TGCTCATTCCTGTCATGTACATATTATATATATATA [XGTACX_site6890],9.91
21,ATATGAACATTTACATGTACATGTAAATGTAACACT [XGTACX_site4574],9.67
22,ACAGTATCTGGTAGCTGTACGAGTCGTAGAGTGTAG [XGTACX_site2011],9.77
23,AAAATATAAAGTATTTGTACATAATATATTTTTAAA [XGTACX_site3494],9.66
24,AATATATAAATAAATATATAAATAAATAATTGAAGC [CACACA_negctrl_site348],10.1
